From US11155586B2, “Cystine knot scaffold platform” (Genentech, Inc., priority 2015, dated 2021)
Read-outs that look alike come from different tables or passages of the source. At least one structure is not confirmed: it was looked up by name or label, or the drawing left a doubt. Positions of bridges follow the written chain, without caps; N, C: chain ends. Residues, ends and D or L forms follow the SMILES beside them.

Columns and labels:
hVEGF-A = target: T1, hVEGF-A (Homo sapiens, UniProt P15692); experiment: KDR-CHO VEGF assay to determine cellular IC50 (VEGF mediated Tyr phosphorylation of KDR); assay type: cell-based
T1 sequence (P15692 207-395): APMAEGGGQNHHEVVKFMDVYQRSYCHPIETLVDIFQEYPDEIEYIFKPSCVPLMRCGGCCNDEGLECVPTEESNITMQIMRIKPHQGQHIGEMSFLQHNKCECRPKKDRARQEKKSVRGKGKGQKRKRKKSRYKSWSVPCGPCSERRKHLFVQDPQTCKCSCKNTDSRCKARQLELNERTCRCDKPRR

VEGF-A and KDR = target: T2, VEGF-A and KDR (Homo sapiens, UniProt P15692); experiment: Competition ELISA, KDR-VEGF interaction; assay type: binding; conditions: read-out: KDR-VEGF IC50; Table 28
T2 sequence (P15692 207-395): T1 sequence (P15692 207-395)
Method: Binding specificity of each peptide was established by competition ELISA. […] After blocking with block buffer (PBS with 0.5% BSA and 0.05% TWEEN®20) for 2 hours at room temperature, the receptor-Fc fusions or biotinylated receptors were serially diluted using assay buffer (PBS with 0.5% BSA and 0.05% TWEEN®20) and incubated for 1 hour at room temperature. […] Competition ELISA was conducted in an identical fashion as described above except after blocking, a mixture of serially diluted peptide containing a constant concentration of receptor-Fc fusion or biotinylated receptor (concentration of receptor was set to EC60) was added and incubated for 1 hour. All recombinant human proteins and antibodies were purchased from R &D Systems (Minneapolis, Minn.).

hVEGF-A (8-109) [1] = target: T3, hVEGF-A (8-109) (Homo sapiens, UniProt P15692); experiment: SPR binding assay (BIACORE 3000, 37° C.)
T3 sequence (P15692 34-135 isoform P15692-4): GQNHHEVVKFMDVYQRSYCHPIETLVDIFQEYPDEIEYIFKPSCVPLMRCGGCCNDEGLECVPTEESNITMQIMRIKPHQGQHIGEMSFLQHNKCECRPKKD
Method: Depending on the format of the assay either a streptavidin sensor (SA) or a dextran-coated (CM5) sensor was utilized as described below.
For use with the SA sensor, VEGF-A was first biotinylated (no more than 2 biotin/VEGF-A) by incubating the protein with EZ-link NHS-PEG4-Biotin (Pierce) in a 1:1.5 molar ratio respectively, in PBS for 2 hours on ice. Reaction was then quenched by addition of 10 molar excess of Glycine pH 8.0 and the sample was buffer exchanged into PBS using an Amicon 0.5 mL 3000 MWCO ultra-centrifugal filters (EMD Millipore). The biotinylation state of the protein was verified by LC-MS analysis. Biotinylated VEGF-A was then captured on the surface until a resonance unit (RU) signal of about ˜400. For immobilization of VEGF-A on CM5 sensor, the surface was first activated with a mixture of N-ethyl-N′-(3-dimethylaminopropyl)carbodiimide hydrochloride and N-hydroxysuccinimide (EDC/NHS) according to the supplier instructions. VEGF-A was then diluted into coupling buffer (0.1 M Acetate Buffer, pH 5.0) and injected until the signal reached about ˜400 RU followed by a wash with 1 M ethanolamine pH 8.0 to quench remaining activated sites.
Following the capture step, a series of the peptide concentrations were prepared in HBS-EP buffer with matching DMSO concentrations to 0.1% and injected at a flow rate of […]. The resulting sensorgrams were then analyzed using a 1:1 binding model to obtain kinetic data and affinities using Scrubber 2.0 (BioLogic Software).

hVEGF-A (8-109) [2] = target: T3, hVEGF-A (8-109); experiment: Phage competition ELISA; assay type: binding; conditions: read-out: phage ELISA IC50, soluble peptides, Table 25
[3] = read-out: Cellular IC50, Table 28

| SMILES | IC50 (hVEGF-A; [3]) [nM] | IC50 (VEGF-A and KDR) [nM] | Kd (hVEGF-A (8-109) [1]; hVEGF-A (8-109), Table 29) [nM] | Kd (hVEGF-A (8-109) [1]; Table 37, surface plasmon resonance, VEGF-A) [nM] | IC50 (hVEGF-A; read-out: Cellular Assay hVEGF-A (25 ng/ml), hVEGF-A 25 ng/ml, Table 20) [nM] | IC50 (hVEGF-A; read-out: Cellular IC50, Table 25) [nM] | IC50 (hVEGF-A (8-109) [2]) [nM] |
| --- | --- | --- | --- | --- | --- | --- | --- |
| CC[C@H](C)[C@@H]1NC(=O)[C@H](CC(N)=O)NC(=O)[C@@H](NC(=O)CN)CSSC[C@@H](C(=O)N[C@H](C(=O)N[C@H]2CSSC[C@@H](C(=O)NCC(=O)O)NC(=O)[C@H](CO)NC(=O)[C@H](CCC(N)=O)NC(=O)[C@H](Cc3ccc(O)cc3)NC(=O)[C@H](Cc3ccc(O)cc3)NC(=O)[C@H](CCC(N)=O)NC2=O)C(C)C)NC(=O)CNC(=O)[C@H](C)NC(=O)[C@H](CC(C)C)NC(=O)[C@@H]2CSSC[C@H](NC(=O)CNC(=O)[C@H](Cc3c[nH]c4ccccc34)NC(=O)[C@H](Cc3ccccc3)NC(=O)[C@@H]3CCCN3C(=O)[C@H](CC(C)C)NC(=O)[C@H](CCSC)NC1=O)C(=O)NCC(=O)N1CCC[C@H]1C(=O)N[C@@H](CC(=O)O)C(=O)N[C@@H](CC(C)C)C(=O)N[C@@H](CCC(N)=O)C(=O)N2 [VEGF_CKP9.54.59] (H-GCNIMLPFWGCGPDLQCLAGCVCQYYQSCG-OH; disulfide 2-21, 11-17, 23-29; N-terminus and C-terminus assumed) | 3.06 | 0.5 | – | – | – | – | – |
| CSCC[C@@H]1NC(=O)[C@H](C(C)C)NC(=O)[C@H](CC(=O)O)NC(=O)[C@@H](NC(=O)CN)CSSC[C@@H](C(=O)N[C@H](C(=O)N[C@H]2CSSC[C@@H](C(=O)NCC(=O)O)NC(=O)[C@H](CO)NC(=O)[C@H](CC(N)=O)NC(=O)[C@H](Cc3ccc(O)cc3)NC(=O)[C@H](Cc3c[nH]c4ccccc34)NC(=O)[C@H](Cc3c[nH]cn3)NC2=O)C(C)C)NC(=O)CNC(=O)[C@H](C)NC(=O)[C@H](CC(C)C)NC(=O)[C@@H]2CSSC[C@H](NC(=O)CNC(=O)[C@H](Cc3c[nH]c4ccccc34)NC(=O)[C@H](Cc3ccc(O)cc3)NC(=O)[C@@H]3CCCN3C(=O)[C@H](CCC(N)=O)NC1=O)C(=O)NCC(=O)N[C@@H](CCC(=O)O)C(=O)N[C@@H](CC(N)=O)C(=O)N[C@@H](Cc1ccccc1)C(=O)N[C@@H](CC(C)C)C(=O)N2 [VEGF_CKP9.63.1] (H-GCDVMQPYWGCGENFLCLAGCVCHWYNSCG-OH; disulfide 2-21, 11-17, 23-29 (inferred); N-terminus and C-terminus assumed) | 0.49 | 0.4 | 5.8 | – | – | – | – |
| CSCC[C@@H]1NC(=O)[C@H](CC(=O)O)NC(=O)[C@H](CCCNC(=N)N)NC(=O)CNC(=O)[C@@H]2CSSC[C@H](NC(=O)[C@H](CC(=O)O)NC1=O)C(=O)N[C@@H](CC(C)C)C(=O)N[C@@H](C)C(=O)NCC(=O)N[C@H](C(=O)N[C@H](C(=O)N[C@H]1CSSC[C@@H](C(=O)NCC(=O)O)NC(=O)[C@H](CO)NC(=O)[C@H](CC(N)=O)NC(=O)[C@H](Cc3ccc(O)cc3)NC(=O)[C@H](Cc3c[nH]c4ccccc34)NC(=O)[C@H](Cc3c[nH]cn3)NC1=O)C(C)C)CSSC[C@H](NC(=O)CN)C(=O)N[C@@H](CC(=O)O)C(=O)N[C@@H](C(C)C)C(=O)N[C@@H](CCSC)C(=O)N[C@@H](CCC(N)=O)C(=O)N1CCC[C@H]1C(=O)N[C@@H](Cc1ccc(O)cc1)C(=O)N[C@@H](Cc1c[nH]c3ccccc13)C(=O)NCC(=O)N2 [VEGF_CKP9.63.27] (H-GCDVMQPYWGCGRDMDCLAGCVCHWYNSCG-OH; disulfide 2-21, 11-17, 23-29 (inferred); N-terminus and C-terminus assumed) | 5.28 | 0.3 | – | – | – | – | – |
| CSCC[C@@H]1NC(=O)[C@H](C(C)C)NC(=O)[C@H](CC(=O)O)NC(=O)[C@@H](NC(=O)CN)CSSC[C@@H](C(=O)N[C@H](C(=O)N[C@H]2CSSC[C@@H](C(=O)NCC(=O)O)NC(=O)[C@H](CO)NC(=O)[C@H](CC(N)=O)NC(=O)[C@H](Cc3ccc(O)cc3)NC(=O)[C@H](Cc3c[nH]c4ccccc34)NC(=O)[C@H](Cc3c[nH]cn3)NC2=O)C(C)C)NC(=O)CNC(=O)[C@H](C)NC(=O)[C@H](CC(C)C)NC(=O)[C@@H]2CSSC[C@H](NC(=O)CNC(=O)[C@H](Cc3c[nH]c4ccccc34)NC(=O)[C@H](Cc3ccc(O)cc3)NC(=O)[C@@H]3CCCN3C(=O)[C@H](CCC(N)=O)NC1=O)C(=O)NCC(=O)N[C@@H](CCC(=O)O)C(=O)N[C@@H](CO)C(=O)N[C@@H](CC(C)C)C(=O)N[C@@H](CO)C(=O)N2 [VEGF_CKP9.63.69] (H-GCDVMQPYWGCGESLSCLAGCVCHWYNSCG-OH; disulfide 2-21, 11-17, 23-29 (inferred); N-terminus and C-terminus assumed) | 26.4 | 2.1 | – | – | – | – | – |
| CSCC[C@@H]1NC(=O)[C@H](CC(C)C)NC(=O)[C@H](CCC(N)=O)NC(=O)[C@@H](NC(=O)CN)CSSC[C@@H](C(=O)N[C@H](C(=O)N[C@H]2CSSC[C@@H](C(=O)NCC(=O)O)NC(=O)[C@H](CO)NC(=O)[C@H](CCC(N)=O)NC(=O)[C@H](Cc3ccc(O)cc3)NC(=O)[C@H](Cc3c[nH]c4ccccc34)NC(=O)[C@H](Cc3c[nH]cn3)NC2=O)C(C)C)NC(=O)CNC(=O)[C@H](C)NC(=O)[C@H](CC(C)C)NC(=O)[C@@H]2CSSC[C@H](NC(=O)CNC(=O)[C@H](Cc3c[nH]c4ccccc34)NC(=O)[C@H](Cc3ccccc3)NC(=O)[C@@H]3CCCN3C(=O)[C@H](CCC(N)=O)NC1=O)C(=O)N[C@@H](CCCCN)C(=O)N[C@@H](CCC(N)=O)C(=O)N[C@@H](CC(=O)O)C(=O)N[C@@H](CO)C(=O)N[C@@H](CC(=O)O)C(=O)N2 [VEGF_CKP9] (H-GCQLMQPFWGCKQDSDCLAGCVCHWYQSCG-OH; disulfide 2-21, 11-17, 23-29 (inferred); N-terminus and C-terminus assumed) | 11700 | 569 | – | 5000 ± 1000 | 12000 | 11700 | 1360 |
